Some of the results follow. Further columns of the screen follow, without active or inactive calls.
How the values were obtained:
Test in all cases: Primary Screen for Target Class Profiling of Small Molecule Inhibitors of Methyltransferases
[1] = molecular target: Glycine N-methyltransferase (Homo sapiens) (UniProt Q14749); details: purified enzyme, MTase-Glo SAH luminescence; measured here: GNMT inhibition; at 40 µM; stronger effect = lower value
Outline: (§1)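 Each enzyme was assayed with SAM and its substrate. SAH formation detected by MTase-Glo luminescence; single-point 40 uM screen[…].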

[2] = molecular target: Guanidinoacetate N-methyltransferase (Homo sapiens) (UniProt Q14353); details: purified enzyme, MTase-Glo SAH luminescence; measured here: GAMT inhibition; at 40 µM; stronger effect = lower value
Outline: as §1

[3] = molecular target: Histamine N-methyltransferase (Homo sapiens) (UniProt P50135); details: purified enzyme, MTase-Glo SAH luminescence; measured here: HNMT inhibition; at 40 µM; stronger effect = lower value
Outline: as §1

[4] = molecular target: Nicotinamide N-methyltransferase (Homo sapiens) (UniProt P40261); details: purified enzyme, MTase-Glo SAH luminescence; measured here: NNMT inhibition; at 40 µM; stronger effect = lower value
Outline: as §1

[5] = molecular target: Phenylethanolamine N-methyltransferase (Homo sapiens) (UniProt P11086); details: purified enzyme, MTase-Glo SAH luminescence; measured here: PNMT inhibition; at 40 µM; stronger effect = lower value
Outline: as §1
On the % scale 0 is the no-effect control and ±100 the full control effect.

SMILES	activity change, negative = inhibition [1]	activity change, negative = inhibition [2]	activity change, negative = inhibition [3]	activity change, negative = inhibition [4]	activity change, negative = inhibition [5]
OC[C@H]1O[C@@H](O[C@H]2[C@H](O)[C@@H](CO)O[C@@H](OCc3ccccc3)[C@@H]2O[C@@H]2OC[C@](O)(CO)[C@H]2O)[C@H](O)[C@@H](O)[C@@H]1O	3.78%	8.49%	7.57%	-4.32%	5.3%
CCOCCCNC(=O)c1cc2n(n1)CC(C)(C(=O)NCc1ccc(F)cc1)N(C)C2=O (stereo not drawn)	2.01%	1.29%	-2.74%	2.73%	-1.31%
Cc1ccc2c(c1)c1c3n2CCN(C(=O)c2ccccc2Cl)C3CCC1 (stereo not drawn)	-4.01%	-2.21%	-8.02%	-21.3%	-9.04%
CCOc1ccc(CCN2C(=O)c3cc4ccccc4n3CC2(C)C(=O)NC2CCCC2)cc1 (stereo not drawn)	3.69%	4.62%	1.26%	4.04%	-0.81%
CC1(CO)CCCC2(C)C1C(OC(=O)c1ccccc1)CC1C(=O)OCC12O (stereo not drawn)	0%	-6.68%	9.04%	-6.4%	7.62%
C[C@H](Oc1cc(-c2cnn(C3CCNCC3)c2)cnc1N)c1c(Cl)ccc(F)c1Cl	-41.8%	-21.5%	-65.9%	-64.6%	-40.3%
CCCC(=O)N1CCC(N2C(=O)N(Cc3cccnc3)CC23CCOC3)CC1 (stereo not drawn)	-2.83%	-11.7%	-5.21%	-10.2%	-9.69%
CC(C)C(Oc1ccccc1)C(=O)N1CCc2c(ncnc2N(C)C)C1 (stereo not drawn)	-1.47%	0.616%	1.34%	-8.34%	-4.59%
CC1(C)SC2C(NC(=O)[C@H](NC(=O)N3CCNC3=O)c3ccccc3)C(=O)N2C1C(=O)O (stereo partly drawn)	-1.28%	6.5%	2.9%	-10.5%	-3.29%
CC(=O)Nc1ccc(S(=O)(=O)N2C[C@@H]3C[C@H](C2)c2c(-c4ccc(OC(F)(F)F)cc4)ccc(=O)n2C3)cc1	-6.76%	-6.02%	-2.46%	-19.3%	-6.23%
COc1cccc(C(=O)N(C)Cc2ccccc2C(F)(F)F)c1	-4.59%	2.3%	0.644%	-9.84%	-2.22%
CCOc1ccc(CNC(=O)C(C)n2ccc3cc(S(=O)(=O)N4CCCC4)ccc32)cc1OC (stereo not drawn)	-3.54%	-1.15%	-1.11%	-12.8%	-5.8%
COCc1ccc2c(c1)c(OC(C)(C)C(=O)N1CCN(C)CC1)nn2Cc1ccccc1	-3.92%	-1.09%	-0.314%	-15.3%	-6.69%
CCOC(=O)c1cccc(N2C(=O)Cn3cccc3C2C(=O)NC2CCCCC2C)c1 (stereo not drawn)	3.73%	1.24%	9.88%	12.1%	1.36%
Cc1ccc(Cn2c(=O)c3ccccc3n3c(-c4cccc(O)c4)nnc23)cc1	-6.14%	0%	6.48%	3.77%	1.35%
O=Cc1ccc(N2CCN([S+](=O)([O-])C3CC3)CC2=O)cc1	-6.23%	-3.71%	-3.94%	-5.78%	-1.58%
CC(C)C(O)(CO)CCO[C@@H]1O[C@H](CO[C@H]2OC[C@](O)(CO)[C@H]2O)[C@@H](O)[C@H](O)[C@H]1O (stereo partly drawn)	0.09%	7.35%	11.9%	-4.25%	2.29%
CCCN1CCN(CCCNC(=O)c2cc3n(n2)CC(C)(C(=O)NCc2ccccc2)N(C)C3=O)CC1 (stereo not drawn)	1.39%	1.35%	4.19%	3.28%	1.23%
CC1(C)CC[C@]2(C(=O)O)[C@H](O)C[C@]3(C)C(=CCC4[C@@]5(C)CC[C@H](O[C@@H]6OC[C@@H](O)[C@H](O)[C@H]6O)[C@@](C)(C(=O)O)C5CC[C@]43C)[C@@H]2C1 (stereo partly drawn)	0%	5.84%	9.61%	-7.55%	0.994%
COc1ccc(-c2cc3n(n2)CC(C)(C(=O)NC2CCCCC2)N(Cc2ccccc2C)C3=O)cc1 (stereo not drawn)	0.786%	0%	4.03%	9.92%	1.14%

SMILES	activity change, negative = inhibition [1]	activity change, negative = inhibition [2]	activity change, negative = inhibition [3]	activity change, negative = inhibition [4]	activity change, negative = inhibition [5]
NCc1c[nH]c(=S)n1[C@@H]1CCc2c(F)cc(F)cc2C1	4.58%	5.31%	3.54%	-14.6%	-2.82%
CN1CCC[C@H]1c1nc(-c2ccc(F)cn2)no1	-10.1%	-11.3%	-8.69%	-17.4%	-11.7%
O=c1[nH]c(-c2ccc(F)cc2)nc2c1CCN(S(=O)(=O)c1cccs1)C2	-4.19%	-1.78%	-1.69%	-0.808%	-8.02%
O=C(NC(Cc1c[nH]c2ccccc12)C(=O)O)c1ccc(Cl)cc1 (stereo not drawn)	2.12%	0%	8.25%	9.39%	2.14%
OC(CCN1CCCCC1)(c1ccccc1)C1CCCCC1 (stereo not drawn)	4.26%	13.1%	15.1%	-6.9%	-3.51%
CC1(C)OC[C@H](NC(=O)Nc2ccc(Br)cc2Br)[C@H](c2ccccc2)O1	2.62%	-1.96%	6.62%	-15.7%	2.06%
CC(C)CCNC(=O)CCc1nnc2n(CCC(C)C)c(=O)c3ccccc3n12	-4.5%	4.63%	4.69%	8.13%	-1.94%
COc1ccccc1NC(=O)Nc1ccc2n(c1=O)C[C@H]1C[C@@H]2CN(C(=O)Cc2cccs2)C1	0.818%	1.8%	0.955%	-2.01%	4.74%
COc1ccccc1CNC(=O)C1(C)Cn2c(cc3ccccc32)C(=O)N1Cc1ccco1 (stereo not drawn)	-3.4%	0.89%	-0.2%	-6.73%	-6.91%
CNC(=O)[C@@H]1CN(C(=O)c2ccoc2C)C[C@H]1c1nc(C)no1	-3.15%	-3.18%	0.859%	-5.67%	-3.09%
C=CCC1(C(=O)O)CCCN(C(=O)Cc2c[nH]c(=O)n(C)c2=O)C1 (stereo not drawn)	-1.22%	-0.241%	1.67%	-2.26%	1.87%
N#C/C(=C\c1ccc(O)c(O)c1)C(=O)NCCCNC(=O)/C(C#N)=C/c1ccc(O)c(O)c1	-81.7%	-17.9%	-53.9%	-21.5%	-18.3%
CC1=CC(=O)[C@H]2C(C)(C)CCC[C@]2(C)[C@@]1(O)CO	1.73%	4.82%	0.767%	-7.66%	5.34%
COc1ccc(C[C@H](C)NC[C@@H](O)c2ccc(O)c(NC=O)c2)cc1	5.01%	2.85%	1.27%	-5.89%	2.64%
CCc1ncc2c(N3CC4CCC(C3)N4CC(F)(F)F)nc3ccccc3n12	-22.5%	-5.42%	-7.97%	-28.5%	-8.48%
CCc1ccccc1N1C(=O)c2cc3ccccc3n2CC1(C)C(=O)NCc1ccccc1OC (stereo not drawn)	2.62%	0.086%	6.32%	5.01%	0.088%
CS(=O)(=O)N1CCC2(CC1)CN(C(=O)c1ccc(Cl)cc1)CCO2	-3.51%	-6.63%	-4.38%	-7.87%	-5.03%
CC1CCN(S(=O)(=O)c2ccc3c(ccn3CCC(=O)NCc3ccccc3F)c2)CC1	-0.595%	3.67%	-0.13%	-4.87%	-3.68%
Cc1ccc(CCNC(=O)CCc2nnc3n(CCc4ccccc4)c(=O)c4ccccc4n23)cc1	-4.38%	0%	8.6%	-0.812%	1.27%
Cc1ccc(CN2C(=O)c3cc4ccccc4n3CC2(C)C(=O)NCCC(C)C)o1 (stereo not drawn)	-1.87%	3.73%	-0.7%	-6.22%	-7.36%

SMILES	activity change, negative = inhibition [1]	activity change, negative = inhibition [2]	activity change, negative = inhibition [3]	activity change, negative = inhibition [4]	activity change, negative = inhibition [5]
Cc1ccc(NC(=O)Cn2nc3n(C(C)C)c(=O)c4ccc(C(=O)NC(C)C)cc4n3c2=O)cc1	8.74%	1.49%	11.2%	5.49%	8.68%
CCOc1ccc(-c2cc3n(n2)CC(C)(C(=O)NC2CCCCC2)N(c2ccc(F)cc2)C3=O)cc1 (stereo not drawn)	-0.315%	0.924%	-3.91%	4.49%	-0.978%
Cn1c(=O)n(C)c2cc(S(=O)(=O)Nc3ccc4c(c3)OCO4)ccc21	-1.75%	0%	-2.1%	-12.6%	-3.44%
CCN1C(=O)c2cc(C(=O)NCCN3CCOCC3)nn2CC1(C)C(=O)NC1CCCC1 (stereo not drawn)	4.12%	0%	-1.12%	6.29%	3.81%
COCCCN1C(=O)CSc2c(c3ccccc3n2C)C1C(=O)NCc1ccccc1OC (stereo not drawn)	9.86%	0%	5.05%	1.43%	8.02%
CN1c2cc(C(=O)N3CCN(c4ccccn4)CC3)ccc2C(=O)N2CCCCC21 (stereo not drawn)	-1.73%	-5.83%	-0.003%	-10.4%	-0.163%
CCC(C(=O)NCCC1=CCCCC1)n1ccc2cc(S(=O)(=O)N3CCCCC3)ccc21 (stereo not drawn)	3.36%	0.617%	-0.483%	2.01%	0.414%
CCc1nc(-c2ccc(OC3CCN(C(=O)Cc4c[nH]c5ccccc45)C3)cc2)no1 (stereo not drawn)	-7.29%	-2.1%	-3.37%	-5.93%	-1.51%
CCCCNC(=O)c1cc2n(n1)CC(C)(C(=O)NC1CCCCCC1)N(C)C2=O (stereo not drawn)	4.56%	4.9%	-2.68%	4.37%	0.664%
C=CCN(C)C(=O)CC1COc2ccc(C(=O)N(C)C)cc2N1C (stereo not drawn)	-1.93%	-1.77%	0.713%	-8.69%	-5.77%
CCOC(=O)C(C)(C)Oc1ccc(Cl)cc1	-1.88%	7.03%	0.763%	-4.39%	6.1%
O=c1cc(N2CCOCC2)oc2c1ccc1ccccc12	–	3.83%	–	-15.6%	-3.06%
CCN1C(=O)c2cc(C(=O)NCc3ccc(F)cc3)nn2CC1(C)C(=O)NC1CCCC1 (stereo not drawn)	-3.31%	0.213%	-11.8%	-2.36%	-0.59%
c1cnc2c(c1)ccc1cccnc12	4.42%	9.76%	8.1%	-7.08%	-0.318%
OC[C@H]1O[C@@H](OC[C@H]2O[C@@H](OCc3ccccc3)[C@H](O)[C@@H](O)[C@@H]2O)[C@H](O)[C@@H](O)[C@@H]1O	3.86%	4.69%	3.67%	-5.43%	6.5%
CC1(C(=O)NC2CCCCC2)Cn2c(ccc2-c2ccccc2)C(=O)N1Cc1ccccc1Cl (stereo not drawn)	0.22%	5.6%	4.64%	2.56%	0.623%
O=C(O)C1Cn2cccc2C(=O)N1Cc1cccnc1 (stereo not drawn)	-1.21%	-6.81%	0.164%	0.68%	-0.367%
CC[C@H]1OC(=O)[C@H](C)C(O[C@H]2C[C@@](C)(OC)[C@@H](O)[C@H](C)O2)[C@H](C)[C@@H](OC2O[C@H](C)C[C@H](N(C)C)[C@H]2O)[C@](C)(O)C[C@@H](C)CN(C)[C@H](C)[C@@H](O)[C@]1(C)O (stereo partly drawn)	9.78%	8.77%	11.6%	-15.1%	1.48%
